Screen size: about 48,000 compounds; about 550 (1.1%) were called active. Roughly 4% stayed inconclusive and do not appear here. Rule as the data show it: active = potency below about 15 µM; inconclusive = mostly about 16 µM to 33 µM; inactive = weaker than that. Some of the results follow.
Potency is read from the fitted curve at half-maximal effect.

The test deals with Lysosomal acid glucosylceramidase (Homo sapiens) (UniProt P04062). In words: Glucocerebrosidase.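 Also: the screen sought inhibitors.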 The settings on record: purified enzyme, resorufin glucoside fluorescence (screen aimed at inhibitors), 20 min. An outline of the steps: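 Normal human glucocerebrosidase (0.2 nM final) was assayed with resorufin β-D-glucopyranoside (30 uM final) in 50mM citric acid/KH2PO4, 10mM sodium taurocholate, 0.01% tween-20, pH 5.9. Compounds were titrated; fluorescence (Ex 548, Em 600) read after 20 min at RT.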
UniProt P04062, sequence (P04062 whole entry, looked up): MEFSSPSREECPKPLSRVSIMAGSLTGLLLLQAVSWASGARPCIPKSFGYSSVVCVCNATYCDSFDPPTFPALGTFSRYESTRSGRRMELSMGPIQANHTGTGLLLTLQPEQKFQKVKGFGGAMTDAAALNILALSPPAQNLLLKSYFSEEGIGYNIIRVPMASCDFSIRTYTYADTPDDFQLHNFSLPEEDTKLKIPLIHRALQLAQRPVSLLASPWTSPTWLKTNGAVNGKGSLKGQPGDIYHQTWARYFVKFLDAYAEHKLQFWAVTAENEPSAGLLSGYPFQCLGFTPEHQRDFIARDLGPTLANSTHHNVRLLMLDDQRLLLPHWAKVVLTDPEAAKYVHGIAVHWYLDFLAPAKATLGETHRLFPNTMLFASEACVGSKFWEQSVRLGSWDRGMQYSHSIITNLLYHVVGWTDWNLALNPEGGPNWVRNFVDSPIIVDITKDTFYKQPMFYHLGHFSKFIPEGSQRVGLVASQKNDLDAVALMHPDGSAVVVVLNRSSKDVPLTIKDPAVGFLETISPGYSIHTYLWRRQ
Turning to `Fc1ccc(-c2nnc(Cc3nnc(-c4ccc(F)cc4)o3)o2)cc1`, the Potency was inactive: > 76.9 µM.
Then `COC(=O)c1cc(NCc2ccc3c(c2)OCO3)ccc1N1CCOCC1`, with inactive: > 76.9 µM; and `CCCc1nc2oc3cc(OC)ccc3c(=O)c2c(=O)n1Cc1ccco1`, with inactive: > 76.9 µM; and `CCC(CC)C(=O)Nc1c2c(nn1-c1ccc(OC)cc1)CS(=O)C2` (stereo not given), with inactive: > 76.9 µM.
Then `CN(C)CCCNCCCNC(=O)c1ccco1`, with inactive: > 76.9 µM.
As to `Cc1cc(=O)oc2cc(OCC(=O)OCC(=O)NCc3ccc4c(c3)OCO4)ccc12`, the Potency is inactive: > 76.9 µM.
The figure for `CCOC(=O)c1ccc(NC(=O)CSc2nnc(-c3ccncc3)n2C)cc1` is inactive: > 76.9 µM; for `Cc1cc(C)n(C(=O)CCCC(=O)n2nc(C)cc2C)n1` it is inactive: > 76.9 µM.
The figure for `O=C(COC(=O)c1ccco1)NC1CCCCC1` is inactive: > 76.9 µM; for `CCSc1nnc([C@H](C)NC(=O)OC(C)(C)C)o1` it is inactive: > 76.9 µM; for `O=C(Nc1nc2n(n1)C(c1ccc(Cl)cc1)CC(c1ccc(Cl)cc1)N2)c1ccco1` (stereo not given) it is inactive: > 76.9 µM.
The figure for `CC(=O)Nc1ccc(S(=O)(=O)NC(C(=O)O)C2=CCC=CC2)cc1` (stereo not given) is inactive: > 76.9 µM; for `CCOc1ccc(OCC)c(NC(=O)CN2CCC(NC(=O)c3cccc(F)c3)CC2)c1` it is inactive: > 76.9 µM; for `O=C(O)CNC(=O)C1COc2ccccc2O1` (stereo not given) it is inactive: > 76.9 µM.
On to `O=C(NCCc1ccccn1)C1CC(=O)N(Cc2ccccc2Cl)C1` (stereo not given), for which the Potency is inactive: > 76.9 µM.
In the case of `Cc1ccc(C(C(=O)NCc2ccco2)N(Cc2ccco2)C(=O)CNC(=O)c2ccco2)cc1` (stereo not given), the Potency is inactive: > 76.9 µM.
Then `CCN1CCCC1CN(Cc1cc2cc(OC)ccc2[nH]c1=O)C(=O)NCc1ccccc1` (stereo not given), with inactive: > 76.9 µM.
The figure for `COc1ccc(-c2cc(NCCc3ccncc3)n3ncnc3n2)cc1` is inactive: > 76.9 µM; for `COc1cccc(OCC(=O)Nc2ccc(OC)c(OC)c2)c1` it is inactive: > 76.9 µM.
Then `O=C1CC(c2ccc(S(=O)(=O)N3CCN(c4ccccc4)CC3)cc2)CN1` (stereo not given), with inactive: > 76.9 µM; and `CC(NC(=O)CC12CC3CC(CC(C3)C1)C2)C(=O)O` (stereo not given), with inactive: > 76.9 µM.
For the molecule `CCCCCC(=O)N1CCN(CCN=CC2=C(O)CC(c3ccc(OC)cc3)CC2=O)CC1` (stereo not given), the Potency is inactive: > 76.9 µM.
Then `c1ccc2c(c1)[nH]c1c(NCC3CCCO3)ncnc12` (stereo not given), with inactive: > 76.9 µM; and `O=C(CN(c1ccc2c(c1)OCCO2)S(=O)(=O)c1ccccc1)NCC1CCCO1` (stereo not given), with inactive: > 76.9 µM; and `Cc1ccc(N2CCN(C(=O)CNS(=O)(=O)c3ccc(Br)s3)CC2C)cc1` (stereo not given), with inactive: > 76.9 µM.
The figure for `c1ccc(Cn2c(CNc3nc4ccccc4n3CCN3CCOCC3)nc3ccccc32)cc1` is inactive: > 76.9 µM.
The figure for `O=C(Nc1ccc2snnc2c1)N1CCOCC1` is inactive: > 76.9 µM; for `CCOC(=O)c1c(C)[nH]c(C(=O)OCC(=O)Nc2cc(C)ccc2OC)c1C` it is inactive: > 76.9 µM.
Turning to `O=c1[nH]c2ccccc2nc1Cc1ccccc1`, the Potency is inactive: > 76.9 µM.
Then `CCOc1ccc(CCNS(=O)(=O)c2c(C)n[nH]c2C)cc1OCC`, with inactive: > 76.9 µM; and `CCOc1ccc(NC(=O)N2CCC(NC(=O)c3ccco3)CC2)cc1`, with inactive: > 76.9 µM.
As to `CCCSc1ncnc2c1oc1ccccc12`, the Potency was inactive: > 76.9 µM.
Then `Cc1ccc(NC(=O)CSc2n[nH]c(-c3ccncc3)n2)cc1C`, with “inactive”.
Then `Cn1c(SC/C=C/c2ccccc2)nnc1-c1ccco1`, with inactive: > 76.9 µM; and `COCCCn1c(SCC(=O)N2CCc3ccccc32)nnc1-c1ccoc1C`, with inactive: > 76.9 µM.
Then `COc1ccc2c3c(cccc13)OCC2=O`, with inactive: > 76.9 µM.
Regarding `CC1(C)CC(NC(=O)C(F)(F)F)CC(C)(C)N1OC(=O)c1ccco1`, the Potency is inactive: > 76.9 µM.
The figure for `COc1ccc(NC(=O)CNS(=O)(=O)c2cccc3nonc23)c(OC)c1` is inactive: > 76.9 µM; for `Cc1ccc(-c2nnn(CC(=O)NCc3ccccc3)n2)c(-n2cnnn2)c1` it is inactive: > 76.9 µM.
The figure for `CS(=O)(=O)c1ccc(-c2nn[nH]n2)cc1` is inactive: > 76.9 µM; for `COC(=O)c1sc2ccccc2c1C(=O)OC` it is inactive: > 76.9 µM.
Then `CCSc1nc(C)nc2c1oc1ccccc12`, with inactive: > 76.9 µM.
Consider `CC(=O)Oc1ccc2oc3c(c2c1)C(=O)CCC3`, for which the Potency is inactive: > 76.9 µM.
In the case of `CC(=O)Nc1ccc(S(=O)(=O)Nc2nc3ccccc3nc2N2CCCC2)cc1`, the Potency was inactive: > 76.9 µM.
Then `Cc1cc(NC(=O)CCC(=O)N(c2ccc(F)cc2)C2(C(=O)NC3CCCCC3)CCCC2)no1`, with inactive: > 76.9 µM; and `COc1ccc(NC(=O)c2cc(S(=O)(=O)N3CCCCC3)ccc2N2CCCCC2)cn1`, with inactive: > 76.9 µM.
With `COc1cccc(-c2nnn(CC(=O)Nc3ccc(C)cc3C)n2)c1OC`, the Potency is inactive: > 76.9 µM.
The figure for `CSc1nc(C)cc(NC(N)=O)n1` is inactive: > 76.9 µM.
As for `Cc1cc(C)c2[nH]c(=O)c(C(c3nnnn3Cc3ccc4c(c3)OCO4)N3CCC(C)CC3)cc2c1` (stereo not given), the Potency is inactive: > 76.9 µM.
The figure for `CCC(c1nnnn1CCc1ccccc1)N(Cc1ccco1)Cc1cc2cccc(C)c2[nH]c1=O` (stereo not given) is inactive: > 76.9 µM.
Then `O=C(O)CCc1ccc(-c2ccccc2)n1CC1CCCO1` (stereo not given), with inactive: > 76.9 µM; and `CCn1cc(C(=O)N2CCN(c3ccccn3)CC2)c2cc(OC)c(OC)cc2c1=O`, with inactive: > 76.9 µM.
Then `O=C1c2ccncc2C(=O)N1CO`, with inactive: > 76.9 µM.
As for `COc1cccc(C(=O)N2CCN(Cc3cccc(F)c3)CC2)c1`, the Potency was inactive: > 76.9 µM.
The figure for `Cc1noc(C)c1COC(=O)CCC(=O)c1ccc(F)cc1` is inactive: > 76.9 µM.
Then `COc1ccccc1NC(=O)CSc1nnc(Cn2cnc3ccccc32)n1C`, with inactive: > 76.9 µM.
`CCOC1(NC(=O)c2ccccc2)C(C)=CC(=O)C=C1C`: the Potency was inactive: > 76.9 µM.
On to `CC(C)NS(=O)(=O)c1ccc(OCC(=O)Nc2ccccc2F)cc1`, for which the Potency was inactive: > 76.9 µM.
The figure for `O=C(CCNS(=O)(=O)c1cccs1)N1CCCCCC1` is inactive: > 76.9 µM; for `COC(=O)CSc1nnc(CNC(=O)c2ccc(OC)cc2OC)n1C` it is inactive: > 76.9 µM; for `CC(=O)N1CCCc2cc(S(=O)(=O)NC(C(=O)NC(C)c3ccccc3)C(C)C)ccc21` (stereo not given) it is inactive: > 76.9 µM.
Then `COCc1cc(=O)n2[nH]c(C)nc2n1`, with inactive: > 76.9 µM; and `O=C(CSc1ncn(-c2ccccc2)n1)N1CCc2ccccc21`, with inactive: > 76.9 µM; and `COc1cccc(/C(O)=C2/C(=O)C(=O)N(CCN3CCOCC3)C2c2cccs2)c1` (stereo not given), with inactive: > 76.9 µM.
Then `CC(C(=O)NC1=NCCS1)N1C(=O)c2ccccc2C1=O` (stereo not given), with inactive: > 76.9 µM; and `CCCc1n[nH]c2c1/C(=N/O)CC(c1ccccc1)C2` (stereo not given), with inactive: > 76.9 µM.
In the case of `CCCn1nc(C(=O)NCCc2ccc(S(N)(=O)=O)cc2)c2ccccc2c1=O`, the Potency is inactive: > 76.9 µM.
The figure for `CCCCC(CC)C(=O)Nc1ccc(Cl)cn1` (stereo not given) is inactive: > 76.9 µM; for `CCOc1ccccc1NC(=O)c1cccc(NC(=O)c2ccco2)c1` it is inactive: > 76.9 µM; for `O=C(Nc1ccc(NC(=O)c2ccco2)nc1)c1ccccn1` it is inactive: > 76.9 µM.
The figure for `CCOc1ccc(NC(=O)CN2CCN(CC(=O)Nc3ccc4c(c3)OCO4)CC2)cc1` is inactive: > 76.9 µM.
The figure for `Cc1cn(CC2COC(C)(C)O2)c(=O)[nH]c1=O` (stereo not given) is inactive: > 76.9 µM.
Consider `N#Cc1nc(-c2ccccc2Cl)oc1N1CCOCC1`, for which the Potency is inactive: > 76.9 µM.
As for `COCCCN1C(=O)c2[nH]nc(-c3cc(C)cc(C)c3O)c2C1c1ccc(O)c(OC)c1` (stereo not given), the Potency was inactive: > 76.9 µM.
As to `CCOC(=O)c1ccc(-c2c(C(=O)OCC)oc3cc(O)c(CC)cc3c2=O)o1`, the Potency was inactive: > 76.9 µM.
The figure for `O=C(Nc1ccc(F)c(F)c1)c1ccc(F)c(S(=O)(=O)N2CCOCC2)c1` is inactive: > 76.9 µM; for `COc1ccc(C(=O)Cn2c(N3CCOCC3)nc3ccccc32)cc1OC` it is inactive: > 76.9 µM.
Then `COc1ccc(C(c2nnnn2CCc2ccccc2)N2CCN(C)CC2)cc1OC` (stereo not given), with inactive: > 76.9 µM; and `O=C(O)CSCC(=O)Nc1cc(C(F)(F)F)ccc1Cl`, with inactive: > 76.9 µM; and `COCCNC(=O)CSc1nc2ccccc2c(=O)n1-c1cccc(OC)c1`, with inactive: > 76.9 µM.
Then `C=CCn1c(=O)c(C(=O)NCCNCC)c(O)c2ccccc21`, with inactive: > 76.9 µM.
Regarding `Cc1ccc(NC(=O)c2cccc(OCc3c(C)noc3C)c2)c(C)c1`, the Potency is inactive: > 76.9 µM.
Then `Cn1c(=O)c2cc(S(=O)(=O)NCCC(=O)NCCc3ccc(Cl)cc3)ccc2n(C)c1=O`, with inactive: > 76.9 µM; and `COc1ccc(CCCc2nnc(SCC(=O)Nc3nc(C)cs3)n2C)cc1`, with inactive: > 76.9 µM; and `O=C1OC2(CCCCC2)OC(=O)C1=CNc1ccc2c(c1)OCO2`, with inactive: > 76.9 µM.
In the case of `Cc1ccccc1N1CCN(Cc2c(C#N)c3ccccc3n2C)CC1`, the Potency is inactive: > 76.9 µM.
Then `COc1cccc2[nH]c3c(N4CCC(C)CC4)ncnc3c12`, with inactive: > 76.9 µM.
As for `COc1ccc(-c2csc(NC(=O)Cn3nc(C)cc3C)n2)cc1`, the Potency is inactive: > 76.9 µM.
The figure for `CCn1c(SCC(=O)Nc2cc(F)ccc2C)nnc1-c1ccccc1O` is inactive: > 76.9 µM; for `CCOC(=O)c1nn(-c2ccc3c(c2)CCN3C(C)=O)cc1O` it is inactive: > 76.9 µM.

(Values after PubChem BioAssay AID360 (National Center for Advancing Translational Sciences (NCATS), 2006).)
